We go through 3 molecules from PMC4778132 (2016).

This experiment deals with T1, GST-CCR10 CT (C-terminal cytoplasmic tail of human CCR10 fused to GST) (human, UniProt P46092 314-362).
T1 chain: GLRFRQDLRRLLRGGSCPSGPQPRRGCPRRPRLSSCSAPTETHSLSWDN
Briefly: SPR. On the technique in general: Surface plasmon resonance follows binding to a sensor surface in real time, without labels.

As a reminder, the Kd is the constant that tells how readily two partners part at equilibrium. A lower Kd goes with a tighter complex.

B1: HIS-tagged human S100A10 mutant C82Q (natural protein)
chain: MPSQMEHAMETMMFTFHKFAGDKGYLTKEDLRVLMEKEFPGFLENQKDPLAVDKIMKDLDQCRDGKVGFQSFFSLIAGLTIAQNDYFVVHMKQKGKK
Molecule B1 came in with a Kd of 206 nM.

B2: HIS-tagged human S100A10 mutant 85Stop (domain or fragment)
chain: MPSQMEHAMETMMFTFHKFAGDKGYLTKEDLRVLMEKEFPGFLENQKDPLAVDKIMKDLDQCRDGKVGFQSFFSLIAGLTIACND
Regarding B2, the Kd was 1350 nM.

B3: HIS-tagged human S100A10 mutant C82S (natural protein)
chain: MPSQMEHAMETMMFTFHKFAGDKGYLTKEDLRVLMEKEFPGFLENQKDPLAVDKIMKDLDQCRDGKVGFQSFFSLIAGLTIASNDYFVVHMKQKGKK
B3 had a Kd of 442 nM.
